Each structure is given as a SMILES string. The campaign covered roughly 110,000 compounds. About 230 (0.21%) showed an effect of 50% or more. Some of the results follow. Where a SMILES comes first, the peptide text is derived from it.
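Note: 30 min substrate incubation versus DMSO and 10 µM JCP410 controls.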

For this experiment, the target named is DPAP1 (Plasmodium falciparum, UniProt Q8IIJ9). Description: primary screen, percent inhibition; read by cleavage of a fluorogenic dipeptide substrate; higher = more effect of the substance. The arrangement: species or system P. falciparum D10 trophozoite lysates; single well.
Sequence of DPAP1 (Q8IIJ9 whole entry, looked up): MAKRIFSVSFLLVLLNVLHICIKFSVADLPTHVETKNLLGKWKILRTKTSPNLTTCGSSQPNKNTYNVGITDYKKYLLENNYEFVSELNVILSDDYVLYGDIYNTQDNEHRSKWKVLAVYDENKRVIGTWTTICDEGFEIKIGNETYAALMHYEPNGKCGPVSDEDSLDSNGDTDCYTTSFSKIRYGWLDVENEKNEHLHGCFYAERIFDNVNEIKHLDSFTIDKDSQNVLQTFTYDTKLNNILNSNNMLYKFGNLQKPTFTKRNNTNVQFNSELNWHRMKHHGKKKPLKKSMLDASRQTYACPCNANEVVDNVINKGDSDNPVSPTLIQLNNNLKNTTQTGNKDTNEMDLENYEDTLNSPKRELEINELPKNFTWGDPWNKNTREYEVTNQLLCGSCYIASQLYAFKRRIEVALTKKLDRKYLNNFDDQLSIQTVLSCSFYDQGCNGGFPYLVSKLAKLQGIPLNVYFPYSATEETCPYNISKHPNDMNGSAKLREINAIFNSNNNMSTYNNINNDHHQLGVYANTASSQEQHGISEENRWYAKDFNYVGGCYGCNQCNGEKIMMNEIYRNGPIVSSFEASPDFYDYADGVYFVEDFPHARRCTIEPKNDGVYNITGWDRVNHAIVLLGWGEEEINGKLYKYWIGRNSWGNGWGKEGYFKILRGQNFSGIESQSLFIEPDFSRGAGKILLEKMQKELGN
For the compound `CCN(CC)CCCNC(=O)C1CCN(c2nnc(C)c3c(C)n(-c4ccccc4)nc23)CC1`, the “% Inhibition @ 10 uM” value is given as -2.68%.
In the case of `COc1cc(C2C(C#N)=C(N)OC3=C2C(=O)CC(C)(C)C3)ccc1OCc1ccc(F)cc1` (stereo not shown) it was -6.18%; in that of `Nn1cnn2c(SCC(=O)Nc3ccccn3)nnc12`, -5.36%.
In the case of `CC(=O)N1CCC2(CC1)OC(=O)C(C)=C2C(=O)NCCCN1CC(C)CC(C)C1` (stereo not shown) it was -4.96%; in that of `O=C(c1nnc(Cc2ccc(Cl)cc2)o1)N1CCc2ccccc2C1`, -2.19%; in that of `CCc1sc(NC(=O)c2c(-c3ccccc3)noc2C)nc1-c1ccccc1`, -8.79%.
In the case of `Cc1cc(O)nc2cc(O)ccc12` it was 2.34%.
As for `Cc1ccccc1-c1nnc2[nH]c(=O)n(C)c(=O)c2n1`, the “% Inhibition @ 10 uM” value is listed as 0.569%.
Under `CCOC(=O)c1c(C)n(C)c2ccc(OCC(O)Cn3nnc4ccccc43)cc12` (stereo not shown) stands 0.415%.
Under `CC(CNC(=O)CCn1ccc2cc(S(=O)(=O)N3CCCC3)ccc21)c1ccccc1` (stereo not shown) stands -5.15%.
As to `CCCc1[nH]nc2c1C(c1ccccc1F)C(C#N)=C(N)O2` (stereo not shown), the “% Inhibition @ 10 uM” value was found to be 1.08%.
Under `COc1cccc(OC)c1C(=O)Nc1cc(C)cc(C)c1` stands 2.22%.
Consider `CCOc1cc(-c2ccc3c(c2)OCO3)cc(=O)c2c(C)oc(C)c12`, for which the “% Inhibition @ 10 uM” value is reported as -1.6%.
In the case of `Cc1cc(C)cc(C(=O)NCCSc2c(C)[nH]c3ccccc23)c1`, the “% Inhibition @ 10 uM” value is on record as 1.94%.
As for `Cn1c(=O)c2c(nc(SCC(N)=O)n2Cc2ccccc2Cl)n(C)c1=O`, the “% Inhibition @ 10 uM” value was found to be 0.777%.
Regarding `COc1ccc(CCCC(=O)Nc2cccc(Cl)c2)cc1`, the “% Inhibition @ 10 uM” value was found to be 6.37%.
In the case of `O=C(NC(Cc1ccccc1)C(=O)O)OCc1ccccc1` (stereo not shown) it was 0.487%; in that of `Cn1ncc2c(O)ncnc21`, -0.326%; in that of `O=C(O)c1ccc(C#Cc2ccccc2)o1`, -4.01%.
Turning to `OCCNCc1cc(Cl)ccc1OCc1ccc(F)cc1`, the “% Inhibition @ 10 uM” value is reported as 4.11%.
In the case of `CCc1ccc2c3c(c(C)[nH]c13)CCN1C(=O)OC(C)(C)C21C` (stereo not shown) it was -1.24%.
Under `CC(C)C[C@H](NC(=O)OCc1ccccc1)C(=O)NCC(=O)CN(Cc1ccco1)C(=O)OC(C)(C)C` stands -7.36%; under `CC(=O)N1CCN(c2nc(Nc3ccccc3C(=O)c3ccccc3)nc(OC(C(F)(F)F)C(F)(F)F)n2)CC1`, 9.37%; under `O=C(C(NS(=O)(=O)c1cccc2nsnc12)c1ccccc1)N1CCN(C2CCCCC2)CC1` (stereo not shown), 1.79%.
As to `O=C(CC1(O)C(=O)Nc2ccccc21)c1ccc(Br)s1` (stereo not shown), the “% Inhibition @ 10 uM” value is on record as -0.884%.
Under `COc1cccc(C2C3=C(Nc4ncnn42)c2ccccc2OC3c2cccc(F)c2)c1` (stereo not shown) stands -1.62%; under `CCCCCC1C(O)CC(c2ccccc2)N(C)C1c1ccccc1` (stereo not shown), -4.18%.
As for `CCOC(=O)c1c(CC(C)C)csc1NC(=O)c1ccc(C)cc1`, the “% Inhibition @ 10 uM” value is given as -5.9%.
In the case of `NCC1(c2ccc3c(c2)OCCO3)CCOCC1` it was -2.97%; in that of `COc1ccc(/C=C2\SC(Nc3ccccc3Cl)=NC2=O)c(OC)c1`, 6.51%.
Under `CC(C)N(Cc1cccs1)C(=O)[C@H]1[C@@H]2C[C@@H]3[C@H]1C(=O)O[C@@H]3C2` stands 5.35%; under `CC1=C(C(=O)Nc2cccc(C)n2)C(c2ccccc2C(F)(F)F)C2=C(O)CCCC2=N1` (stereo not shown), -0.661%.
Under `COc1ccc(OCCCn2cccc2/C=C2/C(=N)N3OC(C)=CC3=NC2=O)cc1` stands -5.1%; under `COc1cc(OC)c(OC)cc1NC(=O)CC1COc2ccccc2O1` (stereo not shown), 7.74%; under `O=C(CN1C(=O)c2cccc3cccc1c23)Nc1ccccc1C(F)(F)F`, 6.79%.
In the case of `CCCCc1nn2c(C)c(-c3ccc(C)cc3)nc2s1`, the “% Inhibition @ 10 uM” value was 2.41%.
Under `Nc1nc(SCc2ccc(C(=O)NCCO)cc2)nc2sc3c(c12)CCCC3` stands 0.146%; under `CC(=O)Nc1ccc(NC(C)=O)c(C(C)(C)C)c1`, 2.76%; under `C=CCOc1ccc(/C=C2\C(=O)NC(=O)N(CC=C)C2=O)cc1OC`, 0.997%.
For the compound `O=C(/C=C/c1ccccc1)Nc1cc(Cl)ccc1Cl`, the “% Inhibition @ 10 uM” value is reported as -4.94%.
In the case of `COCCCNC(=O)CNC(=O)Cn1ccc2ccccc2c1=O` it was -0.972%; in that of `COc1cc(C2C3=C(CCCC3=O)OC3=C2C(=O)CCC3)ccc1OCc1ccccc1`, 0.736%.
In the case of `CCOC(=O)N1CCC(NC(=O)c2cc(S(=O)(=O)NCCc3ccccc3)ccc2F)CC1` it was 3.04%; in that of `COc1ccc(/C=C(\NC(=O)c2cccc(Br)c2)C(=O)NCCO)cc1`, -8.72%; in that of `O=C(O)CNC(=O)C(Cc1ccccc1)NC(=O)OCc1ccccc1` (stereo not shown) (HELM PEPTIDE1{[O=C(OCc1ccccc1)[*:2]].[O=C(C(Cc1ccccc1)N[*:1])[*:2]].G}$$$$V2.0), -3.64%.
In the case of `COc1ccc(N2CN=C3SC(CO)(CO)C(=O)N3C2)cc1` it was 3.05%; in that of `CC(C)CN1C(=O)c2ccccc2C(C(=O)Nc2cccnc2)C1c1cccs1` (stereo not shown), -0.825%; in that of `CCc1ccc(Oc2nc3c(C)cccn3c(=O)c2/C=C(\C#N)C(=O)NC)cc1`, 2%.
As for `O=C(c1csc2c1CCCC2)N1CCN(c2ccc(F)cc2)CC1`, the “% Inhibition @ 10 uM” value amounted to 0.992%.

The values are drawn from publication PMC6919601, “Identification of Plasmodium dipeptidyl aminopeptidase allosteric inhibitors by high throughput screening” (PLoS ONE, 2019).
